# Experimental data: the supplement of paper PMC11417369
# Some of the results follow.
# Tested on: PF3D7_0420300 AP2 domain 1 (GST-tagged)
# Assay: gcPBM binding intensity (ln(normalized median fluorescence intensity)); higher = stronger DNA binding
# Summary of the method: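 Binding of GST-tagged P. falciparum DNA-binding domains, expressed in E. coli and used at about 25 μg on average, was carried out for 1 h in 1× PBS containing 1% milk, 0.2 mg/ml BSA, 0.5% salmon testes DNA and 0.03% Triton X-100. The target was an Agilent 4 × 180k array of primer-extended double-stranded 36-bp intergenic genomic probes plus negative controls, read with Alexa488 anti-GST antibody at 488 nm. Binding intensity is the highest Masliner-normalised natural-log median intensity across replicate spots of either probe orientation.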
row,Sequence,gcPBM binding intensity (ln)
1,TTGTTCTTATTTCATTTTTATATGATATTTCATTAT [CACACA_negctrl_site1619],9.52
2,TGTTGTTCCAATTTTTGTACATAAAACATATATATA [XGTACX_site5719],9.3
3,AAAAAAAAAAAAAATTGTACATTAAATTAAAAGAAA [XGTACX_site8708],8.92
4,AAGAAAATATAAAATGCACACTATAAATTGTATATA [CACACA_site7928],9.51
5,AAAAAAAAAAATACTTGTACTTATATAATATATTAT [XGTACX_site8333],8.97
6,ACATAAATAATAAAAACACACATATGTACCTATATA [CACACA_site6982],9.69
7,AAATTATTTCTTTGCGCATGTAGCTTTTATACTATT [TGCATGCA_site819],9.51
8,AATACATGCTAAAAACGTACACGTATAAAATTATAT [XGTACX_site3169],9.35
9,TTTTTTTTTTTGGCTAGTACATATGTATTTAAAATG [XGTACX_site7770],9.1
10,GGTGAAATTATTTCTACATGCAGAAATAATTAATTA [TGCATGCA_site194],8.93
11,AATTTAATATAATGCACACATAAAAAAAAAATCAAA [CACACA_site1],9.41
12,CGCACACGCAGACACACACACACATATAAATAAATA [CACACA_site7101],9.86
13,AAAAAAAAGAAAAAAAAAAAAAAAAAAAAAAAAAAA [CACACA_negctrl_site489],8.7
14,TACATTCTAATAATTGCACACTGGTTATTAAAAGGA [CACACA_site1614],9.13
15,TTTTTATTTATATTTCATTGAAGTTAAATTATTTTA [XGTACX_negctrl_site575],8.95
16,TTTTATCAATAAATTCGTACACATGAACTAGAGAGT [XGTACX_site5758],9.31
17,ATTAGTATATTTCTCTGTACTTACATTAAAATATAA [XGTACX_site2217],9.1
18,AATTTAATATTCATCTCTAAAGCTATAACAATTACT [CACACA_negctrl_site1079],9.14
19,TCCTTAAAATATGGTTGTACGTACATCCTAGGTGTT [XGTACX_site7068],9.11

row,Sequence,gcPBM binding intensity (ln)
1,TCTGAAAATTAGAAAAGTACAAAATGGTATAGGAAA [XGTACX_site4396],9.36
2,ATACAAATTTATATTTCACACATTATTATATACTTA [CACACA_site6034],9.6
3,ATATATATATATAAATGTACAGGCTTATCTCTTATT [XGTACX_site1828],9.37
4,TGTATTATATATGTGTGTACATATTTTTTTTTTTTT [XGTACX_site3351],9.4
5,AAATTATTTCAAATGTTGCACTAAAAATAAAATTAT [GTGCAC_site9460],8.94
6,AGAAAGGATATTATATGTACATATCTTTGTATTTTT [XGTACX_site5040],9.36
7,CATACCCATAAACACACACACATATATACCTATATA [CACACA_site4745],10
8,TAGTATGATAACTTGGGTACATAAATATGGAGTATC [XGTACX_site1296],9.46
9,TTCATTTTATTTTAAGTGCATATTTTTATTTTTTTG,9.36
10,TTTTTAATTCAAAAAACTGTATGTTATATGTCAAAT [CACACA_negctrl_site72],8.94
11,TATATAAATAAAAAAAGTACATTACTTTTTAATTTA [XGTACX_site285],8.94
12,ATCATACCTTTTAATGTACACACATTTCTTTTTTGT [CACACA_site8198],9.82
13,TATATATATAAATACACACACACATATATATATATA [CACACA_site4585],9.9
14,AATATACAAATTACAAGTACAAATCAATATTATATG [XGTACX_site7521],9.56
15,AAAAAAAAAAAAAAAACACACAAACAAATGAATAAA [CACACA_site5769],9.71
16,TCATTTTACAGATGTGCATGTGAATCAATCTATTTA [TGCATGCA_site787],8.98
17,GTATATAATTTATATTGTACGCATATTATTATCATT [XGTACX_site7277],9.34
18,TGTAGTTTTTATTTATGTACGCATAACATAATTTAA [XGTACX_site104],9.25
19,AGAATTTAGAAACAATGTTGTATATGTAATACCTTT [XGTACX_negctrl_site149],9.21

row,Sequence,gcPBM binding intensity (ln)
1,GATATTATGTGTTTGGTATTTCGATCTTGTCAGGAC [CACACA_negctrl_site426],9.3
2,TATATATATAAAAAAAGTACGTATTTAATAAAAATA [XGTACX_site4992],9.37
3,ATTTCTATATATTGTGCATGCCATTACACCAAATAT [TGCATGCA_site813],9.34
4,AATGTACAAATACGTACACACATATATATATATATA [CACACA_site1542],9.59
5,GTATAAAATATTTTATGTACATAATATATATATATA [XGTACX_site2489],9.07
6,AAATAAAGGAAATGTATATCAACATTAAAATAAGGC [CACACA_negctrl_site441],9.7
7,TATATGTATGTTTGTGTGCACACATAAATATTATAT,9.94
8,CATTTAAAATTTGTTTGTACATATATATATATATAT [XGTACX_site6729],9.24
9,TTTTACAATAACAATACACACTATAATATGTAAATA [CACACA_site6772],9.46
10,ATATATATATATATATGTACTTATGTCATCATTAAA [XGTACX_site5316],9.07
11,ACGAAGTATATGAATACACACATATTTTTAATGAAA [CACACA_site4070],9.34
12,AGTAAATTTGATGGTCGTACAAAAAAAAAGTAGGAC [XGTACX_site2600],9.58
13,ATATACATAATTTGGAGTACAATATCATATAAATAT [XGTACX_site6334],9.25
14,TTTTTAATCAGAAATATTTATTAAAGAATTTTATAG [GTGCAC_negctrl_site725],8.66
15,GGATAATATATTAGAACACACATATATATGTAAAAA [CACACA_site185],9.42
16,ATGGAATAATCACGTACACACAAGAAAAAAAAAAAT [CACACA_site527],10
17,ATTACAAATACAAACACACAAATGTTTTTCATTCAA [CACACA_site7639],9.35
18,TTTTATTTGACAAGCACACACTTAAATATATATATA [CACACA_site5792],9.27
19,AAACAAAAAATAAAATGTACATTTATTACGATAAGT [XGTACX_site2392],9.58
